Data as given in the supplement of paper PMC10681739.
± gives the standard deviation of the averaged measurements. Over roughly 4,100 sequences, “arbitrary fluorescence units” has its median near 780; the highest 2% begin near 22,000. This is one part of the list.

Each sequence was assayed against T1, ETS1 (UniProt P14921) (assay: ETS1 binding intensity (PBM fluorescence), ETS1 alone (arbitrary fluorescence units); higher = stronger binding). Details: ETS1 concentration 1 nM; RUNX1 concentration 0 nM.
T1 sequence: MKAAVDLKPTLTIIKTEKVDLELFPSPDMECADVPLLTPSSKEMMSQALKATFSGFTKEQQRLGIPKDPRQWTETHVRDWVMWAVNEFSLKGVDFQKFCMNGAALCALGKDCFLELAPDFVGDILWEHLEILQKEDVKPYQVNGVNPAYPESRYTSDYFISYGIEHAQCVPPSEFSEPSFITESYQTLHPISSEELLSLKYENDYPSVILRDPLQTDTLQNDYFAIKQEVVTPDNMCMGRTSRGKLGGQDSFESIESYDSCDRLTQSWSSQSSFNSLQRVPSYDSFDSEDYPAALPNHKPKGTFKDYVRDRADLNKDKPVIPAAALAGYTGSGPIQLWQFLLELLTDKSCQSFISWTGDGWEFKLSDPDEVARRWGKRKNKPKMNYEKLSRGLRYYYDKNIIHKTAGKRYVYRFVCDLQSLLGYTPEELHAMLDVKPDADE
Protocol: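 gcPBM on 36-bp genomic-derived probes (partner site mutated) containing one ETS1 site and no RUNX1 site. Recombinant human ETS1 (1 nM) was incubated alone or with RUNX1 (25 nM) and detected by anti-ETS1 antibody fluorescence. Values are medians over 4 replicate spots (not normalised). The probes sit in constant array flanks that are not printed.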

| Sequence | ETS1 binding intensity |
| --- | --- |
| CAAGAGAAAGGAAGTGGAAGCTCTTGTAGTCTGGAA | 2190 |
| CCAGGATGTAGTTTGGCCACTATTGAGTGCTTTGTT | 428 |
| GCAGAAACAGGAAGAGACAGGGCTGACAGCAGCAGG | 2370 |
| CTCTAGAGGCTTCCTGCCCAACTACCAAGAAAAAGC | 5010 |
| CGATGCTTCCGGCCTCCTATTGGGTGCTTTCTTGGC | 21800 |
| GGCGGATGGGGAGAAGAGAGTGGCTGTTGTCTCTGG | 461 |
| TGTTGCCACTGTTAGACTAGAGAGCATCCTGTTGTT | 851 |
| CCCCCGCCGCTGGCGCCCATCAGTGCCACTTCCGGA | 2400 |
| CCCGGCGGCTACTTTCGGTCACTTTCGCCGGAACCT | 444 |
| TGGGGCCTTGTTATCACAGCACTTCCTGTTTGCTTT | 7990 |
| CTGAAACAGGAAACAGACAAAGTCACAAGGTTCGCA | 5430 |
| AACCCCAAAACGGAAACACCGGAGCCCCAAGCTGAG | 2320 ± 160 |
| GCCCCCAGCCCCGGAGCCTGGCTTTCTTCCTGCTCG | 388 |
| GCCTCGCGGCCTCTAGGTGCGGGCGGATAACAAAAC | 344 |
| ACCTGAGCAGGAAGTAGCTGAGGTCGAGGTGCAGCA | 4370 |
| GTGGGTTTAGGATATGGGTGTAGTTTCTAATTGTCT | 564 |
| CTCCTGGGCTTGTAGTTAGAACATCCTGCAGCAAAG | 1130 |
| CCGCCCTTCCGGCTGGCCCCGCTCAGTCACCCTCAG | 5860 |
| GGTGAGCATCCGATAGCCTGGAGCAGCACCTACACC | 841 |
| GCGGACTGCACTCCCGGTCTCTGCCAGGAAGAAGTA | 440 |
| CTAGGCCACCGGAAGTCTCCGCTCTGGATTTGCAAA | 14300 |
| CAGATTCAAGGAAGTGGTGGTGCTTTGGTGTCGTTG | 852 |
| CAAACATGTTGTCTCCGAGCAGGAAAATGCTAAAAT | 399 |
| GCACTGCTGGTCGGACATAGTGACGCACTTCCGCCC | 1880 |
| GGGGGAGTTTTCGGAAGCGCTAACAGCGTTGGGGCC | 566 |

| Sequence | ETS1 binding intensity |
| --- | --- |
| GCCCGGCTTAGCCGCGTCGCGGAAGTCCGCTCTCTG | 397 |
| GACAATGTAGAGGTTGTCAGGATGTTGCTAAGTCAT | 460 |
| TGTCAAAGTTTGGGGTGAGTGGCTTCCTGGAGACCC | 429 |
| GCCCCGGAAGCTCCTTAAGGAGGACCGTGTGAGTTT | 1880 |
| GGGGGGGTGAGGTCCTGGTCGGAAGGAGGTGGAGAG | 1170 |
| CAGGGCCAACTCACTGCGCCAGGATGTTGTCAGGTC | 540 |
| CGAACCCGGGTTCCGCCCGCGCCGTAGACGCTCCTA | 673 |
| TATTGTGTACTTCCCCTTCATGTTGTAGTTGGCTTT | 1150 |
| ACAACTTCCTGTGGGATTTTTGGTGTCTACGGCTCA | 37400 |
| TTCTGCTACATCCTGCCCACTCCCTGTGACTTCCAC | 9350 |
| AGGCGCGATATTAGGCGGACGAGCGGAAGTGGCTGG | 1840 |
| GGCGGTGACCGGAAGAGCTGAGTCACCGAAGGCGAC | 7610 |
| GGTTCGCGGCTTCCGGGACATTTGTACCCCAGGGGG | 5500 |
| ACTGAGGGCGTTGCTAGCATGAAGGCGGAAGCGCGC | 438 |
| GCTTTTCCGCTCCCAGAGTGCCCCGCTCACAGTTCA | 8800 |
| ATCCCACTATAGGAAGCTTCTCTGTGATTTTGAGCC | 439 |
| GGGGCAGTGCTCACAGGAGGATCTTCCTGGAGTCAT | 352 |
| CCGTACTTCCGCTTTACTCAGATTTTGGACCTCGGG | 30200 |
| CGGCCTCGCGGCATGGGCAGTATCCGCCGCCATCCA | 464 |
| CCCCCGGACGGTTACAGAGGACACTTAAGTGGCTTG | 386 |
| GTTTAACAGGAAACCCTGCAGAGCACAGGTTCTGTC | 2350 |
| TTCCGGCTGGTCCGTGGGGTTTCGGGTTGTCTTGAT | 385 |
| GTGGCCACTTGAACTGCAGATGCTTCCTGGGCTGGT | 446 |
| CAACCTGCTATAAGGAAGTTAAACCCCAGCTCACCG | 609 |
| GTCCCCTCGGTGTCACAGCAATATCCGTTCTTTGAT | 1190 |

| Sequence | ETS1 binding intensity |
| --- | --- |
| GGACAAGGGCCTGCAGCACAGGAAAAGATTTACCAA | 386 |
| GGGCCCACATCCGGCGCGCGCAACAGCAGCCTACTG | 25800 |
| GGTAAATCACAGCTGCCTGAAGCAGGAAGATGAGGG | 419 |
| AGTCTGTGATAATTTGTTATGTAGCGATAGGAAGTG | 349 |
| GTGGCGAAAGTGCGGATGCGAAACCCCTGGCTCGGC | 499 |
| AAAGGGAAGTTCGCGGGAGGTCAAATCCACCGGGGC | 460 |
| CAGTCCGGAATCCCACGCTCCCTAGCCCGAGGTGAG | 375 |
| TAAAATTTCGGGAGGGGACTTGGTCCTTCCTGTTGC | 735 |
| ACTCCCCGTGATAACCTTGTTCATCCGCTGAAGCCC | 479 |
| AACAGTCACATCCGGGGCCGAGAGGAACCCCGAACG | 16200 |
| AAACTGGCCAGAGAGCAGTCTCCGGAAGCTGCCTCT | 738 |
| CACCGGCGCAGTTCGCGGGAGCGCTCTTCCTGGGGC | 565 |
| CGCCTCATTTCCTGTGCAACTGCTGTAAAAATAGGA | 22400 |
| GTAGGTGAGGTACGCCGCACCAGGAAATACTGAAAC | 463 |
| ACGGTCAATGGCCGTAAACCGGGAGGAAGGCGGGAG | 328 |
| CTGCAGTGGGCTCCGCCCAGTTCGAACTTCCTGTAG | 1130 |
| GCATCCCGCGCGCCGAAGACCCACTTCCGGAGACCT | 8210 |
| AAAGGGCTCCAGGGATGTTCTGAGCTTTACAGGCTG | 327 |
| AGCCAGAACTGCGCCCGGGCCGCGGAAGGAAGACTC | 312 |
| AACATGTCGCTATTTTGGGCAATTTCCTGAGGAGGC | 765 |
| AAATTGACGTTTCTGTTAGTGAAGAGGAGGAAGTCA | 377 |
| GCATGCCCGACTGCACCCGCGGACCGGACCTACTTT | 313.1 ± 1.3 |
| AGCAGCTGCCAGAGGAAGTCTGCGGACGGAACAGGC | 593 |
| ACTTCACTTCCCAACCTCCCCTGTCGTTAGGTGTGG | 622 |
| AGCCCACACGGACCCCAGCTCCAGGAAGCCGAGCAA | 384 |

| Sequence | ETS1 binding intensity |
| --- | --- |
| CAGTTTACGGCACTGTTGTCATTTCCGGGGTAAGAT | 7030 |
| GAGGGGAGGTGCTTTCACAGCTTCCTCCCTACCCAC | 641 |
| CGAGCAGGAAGTGGCAAGATTTGATAGGCGGCCAGG | 6050 |
| TGGATAGTGGGACACCTCAACAGGATGTTAGTGAGG | 858 |
| CCAGAAAGCACTTTCAGGTATGTGGAGAAGGAAGTC | 398 |
| CCATTTCCCCCATCACTTTGAATTGGGGTTCTTCTC | 2770 |
| TGTCAGTCTGGGGTTGGGCAGGAAGTGGCTGGGCAG | 2060 |
| CCTGGGGGGCCGGAAGCCCCGCTTCGGCCCCAGCCC | 2820 |
| TCAGTGCACTCGGATGTTGGCCGTAGTTGGGGTTAT | 388 |
| CGGGCCCTGTAGTTTCCAACATCCTGTAGGCGGCCT | 3780 |
| CTGGCGCCTTACGGCCAGAAGCCCGGAATGGACGCA | 338 |
| ACTCAGTCCTGAACAACATTACTTTCCTGTCTACGT | 679 |
| GTGCGGCGGGAAACGCGTTCCCCGGCAAGCGCGCCC | 581 |
| CCCCTTCCCGTTCTCCGAAAGTGCGCCGGTTGGAGC | 2270 |
| TTACACCCAAGGGATGTTGTTTGGGGGGGGCGGGGT | 598 |
| CCTGCCTTCCGTCTTCCAGGCAGAACGACAGAGAGG | 1710 |
| AACAGCTTCCGGCACGGGGGCTGGGGTTGTGTTGGA | 18700 |
| TCTCACCCCGAAAAGACTCCACCCTTCCTGGCCCTT | 360 |
| TTCAGAGCTCCGCGACAGGGAAGACAGGAAGTCCCG | 1480 |
| AGCAAGATAAGCGCTGATCAGGAGCAGGAAGAGGCT | 418 |
| CAGGCCAAAAAGCTACACCTCAGAGGATGTAGTTCG | 333 |
| AGTGGCGTGCTTTGGGGCTTTATATCCGGGAGGAGC | 766 |
| CACCTTTGTTGTAGTTTGTAAACGGAAACAAAAACA | 540 |
| ACACCGTGCTTTTCGGTTCCCGGAAGTCCTTCAGGC | 1560 |
| CTGAAGAGGAAATGTATTCCTCATGTTGTAGTTGGC | 1340 |

| Sequence | ETS1 binding intensity |
| --- | --- |
| GTGAGCTGGGGTGTGCAGCCCACCATTTCCTTTTCT | 484 |
| CCCAGGCTTCCGGGTTGAATATGAGGGCTGAGGCGA | 9420 |
| ATCATCCTGACCATATGTTTCTTTAGGCCCCAAAAC | 755 |
| AAGAAAGGTTCCGGCCTGCGCCCTGCTACCGTGGCT | 2270 |
| CGATTCCGGAGACAGGCCCCACCGTGCTGTAAACTG | 635 |
| TAGACGCGCTTTTGGACTGCTATTTCCGTAAAAGTC | 577 |
| CCTGGGTGTTTGGGGTTCGTTCATCCTGAGGCATAA | 410 |
| GGGCCCTTGTAGCTCACTCCCCCACATCCTGTCTTT | 1268 ± 3.5 |
| CTTAAGCTTCCGCACCATGATGGCGGCAGCCCCAGC | 3720 |
| CCGGGACAGGAAGAGGCTGGGGACAGCGGCGAAGGT | 2760 |
| CATGGGGTCCCTTTTGCGCTGTTCCCGGACGGACTA | 318 |
| TTGGTGGCTTCCTGCCCAGGAGAGCACACCCAGCTT | 6400 |
| TGCTGCGAGCCATAAACATGGTTTCCGTCGGGCCCG | 534 |
| GGTCGGCGGCGCGCGGGATGCTGGGAAATGTAGTTT | 328 |
| TGCTGGCTTCGGCCCTTGCCGTTGCTTTCCGGCGCA | 284 |
| AGTATACTCTGGTGAGAAACTTCCTGCCATACCAGC | 3360 |
| CTCGCCGAAGAGACGCAGACGCGTCCTTCCGGCGGG | 880 |
| CATGATAGTCGTTGGCCAGTCAATGAGGAAACGTAC | 363 |
| CAAGTGTGTTGTCTCCTCTTATTTCCGGGTCTGTCA | 2020 |
| TTCTCTGGGGACAATTAGGGTTTCTGGGTTTCCTGA | 457 |
| AACTTAGCTTCCGGGAAGAAGGCGAGCGGAGGGAGG | 8800 |
| AGCCACACCTCAGGGTTGTCACAGGAAATATGTGGC | 668 |
| GAGACAGCGGCCTCAGTGGTGCGGAAGATGGAGAGG | 395 |
| GCCAGCCAGAGACACCCTGTGCAGCTTCCTCCTTCG | 370 |
| ACTACCTGCTGGTGGACACCAGCGGCGGAAGTCGGG | 752 |
